Test results from patent publication US12473298B2, “Amide compounds, preparation method therefor, and use thereof in the medical field” (Shanghai Synergy Pharmaceutical Sciences Co., Ltd., priority 2019, dated 2025).

Columns and labels:
Mutant type EZH2(Y641F) = Mutant type EZH2(Y641F) (Homo sapiens (Human), UniProt Q15910, Y641F); assay: AlphaLISA, mutant type PRC2 complex EZH2(Y641F); type: biochemical; details: read-out: Mutant type EZH2(Y641F) IC50 Nanomoles per Liter
Mutant type EZH2(A677G) = Mutant type EZH2(A677G) (Homo sapiens (Human), UniProt Q15910, A677G); assay: AlphaLISA, mutant type PRC2 complex EZH2(A677G); type: biochemical; details: read-out: Mutant type EZH2(A677G) IC59 Nanomoles per Liter
Sequence of Mutant type EZH2(A677G) (Q15910 whole entry A677G): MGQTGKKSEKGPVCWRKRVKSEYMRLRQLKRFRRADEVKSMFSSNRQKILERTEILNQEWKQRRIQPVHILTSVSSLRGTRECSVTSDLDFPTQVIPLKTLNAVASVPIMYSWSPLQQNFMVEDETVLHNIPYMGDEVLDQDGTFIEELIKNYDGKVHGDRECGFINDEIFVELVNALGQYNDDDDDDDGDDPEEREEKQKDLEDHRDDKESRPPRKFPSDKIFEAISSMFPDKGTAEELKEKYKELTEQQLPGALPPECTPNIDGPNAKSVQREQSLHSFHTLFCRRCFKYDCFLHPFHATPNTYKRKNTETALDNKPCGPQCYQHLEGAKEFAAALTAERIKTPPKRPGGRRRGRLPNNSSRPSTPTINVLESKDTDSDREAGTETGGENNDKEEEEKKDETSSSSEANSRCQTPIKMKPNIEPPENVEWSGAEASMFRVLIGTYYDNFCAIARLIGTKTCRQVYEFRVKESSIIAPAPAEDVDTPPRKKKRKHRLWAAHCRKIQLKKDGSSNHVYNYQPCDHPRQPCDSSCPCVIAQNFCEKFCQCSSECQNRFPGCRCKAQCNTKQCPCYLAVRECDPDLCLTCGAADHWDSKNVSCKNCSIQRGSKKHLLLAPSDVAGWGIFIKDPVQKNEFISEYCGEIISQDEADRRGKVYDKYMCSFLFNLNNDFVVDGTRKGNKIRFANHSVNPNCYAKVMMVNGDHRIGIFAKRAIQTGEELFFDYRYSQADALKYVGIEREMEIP
Sequence of Mutant type EZH2(A677G) (O75530 whole entry partner): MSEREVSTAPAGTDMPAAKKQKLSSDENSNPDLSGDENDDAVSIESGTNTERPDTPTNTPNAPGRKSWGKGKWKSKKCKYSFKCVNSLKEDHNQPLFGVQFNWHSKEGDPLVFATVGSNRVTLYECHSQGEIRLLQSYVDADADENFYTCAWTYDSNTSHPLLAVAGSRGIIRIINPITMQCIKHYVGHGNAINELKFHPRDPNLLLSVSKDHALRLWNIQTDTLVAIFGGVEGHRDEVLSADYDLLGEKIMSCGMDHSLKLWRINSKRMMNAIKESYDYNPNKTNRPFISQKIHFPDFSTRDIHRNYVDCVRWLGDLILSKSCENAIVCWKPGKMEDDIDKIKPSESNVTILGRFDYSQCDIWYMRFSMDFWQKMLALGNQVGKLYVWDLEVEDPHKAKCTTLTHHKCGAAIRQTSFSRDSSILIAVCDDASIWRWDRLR
Sequence of Mutant type EZH2(A677G) (Q15022 whole entry partner): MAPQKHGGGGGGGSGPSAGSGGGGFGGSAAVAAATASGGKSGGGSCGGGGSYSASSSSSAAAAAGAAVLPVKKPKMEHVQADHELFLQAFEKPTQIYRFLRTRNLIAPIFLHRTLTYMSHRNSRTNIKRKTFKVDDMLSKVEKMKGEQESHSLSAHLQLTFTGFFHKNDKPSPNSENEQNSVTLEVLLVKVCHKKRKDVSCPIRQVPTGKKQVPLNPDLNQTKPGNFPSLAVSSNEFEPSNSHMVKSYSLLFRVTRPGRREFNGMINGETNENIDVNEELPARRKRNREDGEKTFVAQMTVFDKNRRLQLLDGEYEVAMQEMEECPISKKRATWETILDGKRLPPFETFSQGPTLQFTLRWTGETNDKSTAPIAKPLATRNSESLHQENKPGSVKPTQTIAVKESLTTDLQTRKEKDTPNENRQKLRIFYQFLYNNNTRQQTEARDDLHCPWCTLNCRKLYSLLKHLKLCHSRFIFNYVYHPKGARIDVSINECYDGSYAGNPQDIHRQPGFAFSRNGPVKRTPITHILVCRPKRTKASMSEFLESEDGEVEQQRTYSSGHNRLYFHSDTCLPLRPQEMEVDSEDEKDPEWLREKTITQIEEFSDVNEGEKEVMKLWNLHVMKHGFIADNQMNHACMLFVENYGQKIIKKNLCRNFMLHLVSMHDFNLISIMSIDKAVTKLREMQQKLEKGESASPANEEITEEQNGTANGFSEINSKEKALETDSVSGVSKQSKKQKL
Sequence of Mutant type EZH2(A677G) (Q09028 whole entry partner): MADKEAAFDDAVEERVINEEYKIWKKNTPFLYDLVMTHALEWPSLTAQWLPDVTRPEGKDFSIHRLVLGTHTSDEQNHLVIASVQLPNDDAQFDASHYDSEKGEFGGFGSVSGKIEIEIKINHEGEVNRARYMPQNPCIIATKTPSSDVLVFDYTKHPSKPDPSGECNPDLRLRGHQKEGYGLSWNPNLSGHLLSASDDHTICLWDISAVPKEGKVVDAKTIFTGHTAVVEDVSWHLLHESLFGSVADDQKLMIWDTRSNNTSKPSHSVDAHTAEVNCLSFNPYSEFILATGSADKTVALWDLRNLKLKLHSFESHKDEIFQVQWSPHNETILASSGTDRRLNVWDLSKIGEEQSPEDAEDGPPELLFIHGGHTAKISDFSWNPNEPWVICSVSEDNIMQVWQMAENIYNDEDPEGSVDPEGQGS
Sequence of Mutant type EZH2(A677G) (Q6ZN18 whole entry partner): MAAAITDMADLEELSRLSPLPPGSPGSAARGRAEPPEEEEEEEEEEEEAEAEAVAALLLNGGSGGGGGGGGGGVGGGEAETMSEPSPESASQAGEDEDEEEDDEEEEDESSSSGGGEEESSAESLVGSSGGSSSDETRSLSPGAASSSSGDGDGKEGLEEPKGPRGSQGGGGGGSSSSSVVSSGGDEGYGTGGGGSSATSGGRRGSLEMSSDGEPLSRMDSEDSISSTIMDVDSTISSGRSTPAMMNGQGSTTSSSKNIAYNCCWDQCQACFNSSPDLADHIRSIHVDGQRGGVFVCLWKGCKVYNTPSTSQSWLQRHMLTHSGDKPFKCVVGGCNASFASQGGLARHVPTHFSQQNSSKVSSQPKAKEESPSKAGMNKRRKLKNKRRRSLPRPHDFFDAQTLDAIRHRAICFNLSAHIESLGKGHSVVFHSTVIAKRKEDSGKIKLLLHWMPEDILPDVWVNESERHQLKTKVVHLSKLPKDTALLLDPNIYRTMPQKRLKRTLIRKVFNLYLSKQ

Mutant type EZH2(Y641N) = Mutant type EZH2(Y641N) (Homo sapiens (Human), UniProt Q15910, Y641N); assay: AlphaLISA, mutant type PRC2 complex EZH2(Y641N); type: biochemical; details: read-out: Mutant type EZH2(Y641N) IC50 Nanomoles per Liter
Sequence of Mutant type EZH2(Y641N) (Q15910 whole entry Y641N): as the sequence (Q15910 whole entry A677G) above, with Y641N, G677A counted along it
Sequence of Mutant type EZH2(Y641N) (O75530 whole entry partner): as the sequence (O75530 whole entry partner) above
Sequence of Mutant type EZH2(Y641N) (Q15022 whole entry partner): as the sequence (Q15022 whole entry partner) above
Sequence of Mutant type EZH2(Y641N) (Q09028 whole entry partner): as the sequence (Q09028 whole entry partner) above
Sequence of Mutant type EZH2(Y641N) (Q6ZN18 whole entry partner): as the sequence (Q6ZN18 whole entry partner) above

[1] = test system: human diffuse large cell lymphoma B lymphocytes (Pfeiffer cell); assay: Pfeiffer cell proliferation, Calcein AM staining; type: cell-based; details: data of 14th day, read-out: Pfeiffer Proliferation IC50 Nanomoles per Liter
wild-type EZH2 = wild-type EZH2 (Homo sapiens (Human), UniProt Q15910); assay: radiometric assay, activity to wild-type EZH2 of PRC2
Sequence of wild-type EZH2 (Q15910 whole entry): as the sequence (Q15910 whole entry A677G) above, with G677A counted along it
Sequence of wild-type EZH2 (O75530 whole entry partner): as the sequence (O75530 whole entry partner) above
Sequence of wild-type EZH2 (Q15022 whole entry partner): as the sequence (Q15022 whole entry partner) above

[2] = test system: human diffuse large cell lymphoma B lymphocytes (Pfeiffer cell); assay: Pharmacodynamic experiment, Pfeiffer transplanted tumor model in mice; type: in vivo, mice (beige SCID); details: 50 mg/kg, intraperitoneally, once a day for 21 days
[3] = read-out: Wild-type EZH2 IC50 Nanomoles per Liter

Sequence of Mutant type EZH2(Y641F) (Q15910 whole entry Y641F): as the sequence (Q15910 whole entry A677G) above, with Y641F, G677A counted along it
Sequence of Mutant type EZH2(Y641F) (O75530 whole entry partner): as the sequence (O75530 whole entry partner) above
Sequence of Mutant type EZH2(Y641F) (Q15022 whole entry partner): as the sequence (Q15022 whole entry partner) above
Sequence of Mutant type EZH2(Y641F) (Q09028 whole entry partner): as the sequence (Q09028 whole entry partner) above
Sequence of Mutant type EZH2(Y641F) (Q6ZN18 whole entry partner): as the sequence (Q6ZN18 whole entry partner) above

| IC50 (Mutant type EZH2(Y641F)) [nM] | IC50 (Mutant type EZH2(A677G)) [nM] | IC50 (Mutant type EZH2(Y641N)) [nM] | IC50 ([1]; Homo sapiens, Pfeiffer) [nM] | IC50 (wild-type EZH2) [nM] | IC50 [1] [nM] | SMILES | IC50 (wild-type EZH2; [3]) [nM] | inhibited tumor growth [2] [%] |
| --- | --- | --- | --- | --- | --- | --- | --- | --- |
| 0.9 | 0.54 | 0.43 | 2.95 | 1 | – | CCN(c1cc(-c2ccc3c(c2)NC(=O)C32CCOCC2)cc(C(=O)NCc2c(OC)cc(C)[nH]c2=O)c1C)C1CCN(C)CC1 [Example 1, 3-(ethyl(1-methylpiperidin-4-yl)amino)-N-((4-methoxy-6-methyl-2-oxo-1,2-dihydropyridin-3-yl)methyl)-2-methyl-5-(2-oxo-2′,3′,5′,6′-tetrahydrospiro[dihydroindole-3,4′-pyran]-6-yl)benzamide] | – | – |
| 0.64 | 0.44 | 0.23 | 1.38 | – | – | CCN(c1cc(-c2ccc3c(c2)N(C(C)C)C(=O)C32CCOCC2)c(Cl)c(C(=O)NCc2c(OC)cc(C)[nH]c2=O)c1C)C1CCOCC1 [Example 52, 2-chloro-5-(ethyl(tetrahydro-2H-pyran-4-yl)amino)-3-(1-isopropyl-2-oxo-2′,3′,5′,6′-tetrahydrospiro[dihydroindole-3-1,4′-pyran]-6-yl)-N-((4-methoxy-6-methyl-2-oxo-1,2-dihydropyridin-3-yl)methyl)-6-methylbenzamide] | 0.97 | – |
| 0.63 | 0.26 | 0.14 | 2.78 | – | – | CCN(c1cc(-c2ccc3c(c2)N(C(C)=O)CC32CCOCC2)cc(C(=O)NCc2c(C)cc(C)[nH]c2=O)c1C)C1CCOCC1 [Example 74, 5-(1-acetyl-2′,3′,5′,6′-tetrahydrospiro[dihydroindole-3,4′-pyran]-6-yl)-N-((4,6-dimethyl-2-oxo-1,2-dihydropyridin-3-yl)methyl)-3-(ethyl(tetrahydro-2H-pyran-4-yl)amino)-2-methylbenzamide] | 0.83 | – |
| – | – | – | – | – | 38.8 | CC[C@H](C)n1cc(C)c2c(C(=O)NCc3c(C)cc(C)[nH]c3=O)cc(-c3ccc(N4CCNCC4)nc3)cc21 [GSK126, reference compound] | – | 68 |

| SMILES | IC50 (Mutant type EZH2(Y641F)) [nM] | IC50 (Mutant type EZH2(A677G)) [nM] | IC50 (Mutant type EZH2(Y641N)) [nM] | IC50 ([1]; Homo sapiens, Pfeiffer) [nM] | IC50 (wild-type EZH2) [nM] | IC50 [1] [nM] | IC50 (wild-type EZH2; [3]) [nM] | inhibited tumor growth [2] [%] |
| --- | --- | --- | --- | --- | --- | --- | --- | --- |
| CCN(c1cc(-c2ccc3c(c2)C=CC32CCN(CC(F)(F)F)CC2)cc(C(=O)NCc2c(OC)cc(C)[nH]c2=O)c1C)C1CCOCC1 [Example 35, 3-(ethyl(tetrahydro-2H-pyran-4-yl)amino)-N-((4-methoxy-6-methyl-2-oxo-1,2-dihydropyridin-3-yl)methyl)-2-methyl-5-(1′-(2,2,2-trifluoroethyl)spiro[indene-1,4′-piperidine]-5-yl)benzamide] | 0.78 | 0.24 | 0.1 | 2.21 | – | – | 0.9 | – |
| CCN(c1cc(-c2ccc3c(c2)NC(=O)C32CCN(CC3CC3)CC2)cc(C(=O)NCc2c(C)cc(C)[nH]c2=O)c1C)C1CCOCC1 [Example 69, 5-(1′-(cyclopropylmethyl)-2-oxospiro[dihydroindole-3,4′-piperidine]-6-yl)-N-((4,6-dimethyl-2-oxo-1,2-dihydropyridin-3-yl)methyl)-3-(ethyl(tetrahydro-2H-pyran-4-yl)amino)-2-methylbenzamide] | 0.38 | 0.21 | 0.13 | 1.35 | – | – | 0.58 | – |

Read-outs that look alike come from different tables or passages of the source.
